Sequences with one replicate were seen in a single cluster, so their values are uncertain.
System: ATP
Experiment: switch fluorescence ratio, 500 uM ATP over buffer (Cy3 cluster intensity, sum of 5 cycles each) (fold (ratio)); higher = stronger signal-on switching upon ATP binding; sequences stand for … in TCGTCGGCAGCGTCAGATGTGTATAAGAGACAGTTTTTTTTTTTTTTTTTTTTTTTTT…TC
Conditions: aptamer strand: ATP DNA aptamer (quencher-CACCTGGGGGAGTATTGCGGAGGAAGG + anchor), 100 nM annealed; ATP concentration: 500 uM; one replicate
Summary of the method: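 For every switch-domain sequence, the fluorescence ratio is the mean of per-cluster values, each being summed target-cycle Cy3 intensity over summed buffer-cycle Cy3 intensity. Clusters outside 100-1000 RFU were excluded. On a modified Illumina MiSeq flow-cell, the Cy3-labelled switching-strand clusters were annealed to 100 nM quencher-labelled ATP aptamer, imaged in selection buffer and then after 15 min with 500 uM ATP at 22 °C. Five such cycles were run, with NaOH stripping and re-annealing between them.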
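Note: ATP exposure 15 min at 22 °C before imaging.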

Sequence | switch fluorescence ratio
TATCAGCCTC | 1.03
AGGCGTGAAC | 1.03
CCTGTAAGGT | 1.09
CAAACCCCGG | 1.08
CCTATCGGCT | 1.06
GTCGTGGGGA | 1.04
GACGGAGAGG | 1.01
CAAAACCCCG | 1.07
GATTTTTGAC | 0.983
CGAAGCCCTG | 1.03
CTTCGAGTA | 1.01
AGCTCAGTCA | 0.991
CACTCAGCCG | 1.07
TCTGTGGTG | 1.01
GCAAAATTGA | 1.04
ATAGTAACCA | 1.03
CCGCCGAGGG | 1.53
CATGGAAGAC | 1.32
CGACAGAAAA | 0.96
GAATGTGACA | 1.03
AGTTGGGAAG | 1
CCACGAAT | 1.08
CGGTGTCTCT | 0.97

Sequence | switch fluorescence ratio
ATGTGACCCG | 0.979
TGTTCATGGT | 0.978
TGAAAAATCC | 1.31
TGAAAAGTAC | 1.34
GGTGTCAGGT | 0.988
CTGTTGACAC | 0.978
CATGGGCAAA | 0.976
ATGAATACTT | 0.948
CTGTCATATC | 1.17
GGTCTGAGAT | 1.01
CTGTCCATTT | 0.972
TAGACTAACC | 1.13
TATACCTTTA | 1.07
TATGCATCGG | 0.955
GGGGTCTCGA | 0.995
GAACTAAA | 1
GTTCTTGACT | 0.945
TTAGGCTAGT | 1.02
AACGACATGT | 1.02
AATGAAGTAA | 1.16
TCGGGTTGAT | 1
GGTCCGGTTG | 1.01
TGGGAAACAT | 1.08

Sequence | switch fluorescence ratio
GGTTACTTAA | 1.02
CGCAGTGCTA | 2.44
GCGGGAGCAC | 0.986
ACAGGTCTCA | 1.02
CCTTGATCGG | 0.995
CCGCACCCCA | 3.16
GCTTCAGGCG | 1.02
ACGCACAGTG | 1.25
TTGCGCAGGG | 1.12
GCGGAAGGC | 1.06
TTCTGGAGCG | 1.17
CCATTTTGT | 1.03
CATGCTGCTA | 1
ATTGTTCGAC | 1.02
AACGTGCACA | 0.99
GGGAACGACA | 1.05
GTCTTACCTA | 1.07
CCGTTGAGAG | 1.07
TAAACAAGCC | 1.12
ACTGAGATAG | 1.02
TGACAGGGGG | 1.03
CCAGCAGGTT | 1.26
TTCGTTAGGG | 0.95

Sequence | switch fluorescence ratio
GTTAATATTT | 1.01
ATGTAGTAAC | 0.994
TAATGTAAGA | 1.05
CGACAATCCC | 1.37
TCCACCTATT | 1.07
CTCTAAATAA | 2.33
CCACTGCGAA | 2.42
CGTAAGACGC | 1.06
AAGGGAAC | 0.97
TTGAGAGCGT | 0.991
TTCTCACAAA | 0.97
CATGAGGACT | 0.972
ACCAGTTTGG | 1
TAAACCTTCC | 1.41
GTGGTCCTCA | 0.997
GTACTATTGA | 0.958
CACCGCGCAA | 1.91
GGGGGCATAG | 1.01
ATGAGTGGGT | 1.01
TGACGTTCAA | 1.1
CTGGAGGAGC | 1.01
ACTAAATCCC | 1.02
ATAATGGCTA | 1.02

Sequence | switch fluorescence ratio
CACATTTCCC | 1.03
CCAGAGGCCT | 0.998
ATCTTCCGAG | 3.34
CCGGACTTTC | 2.82
CATCAGTAGA | 1.04
AGTAAGGATT | 0.961
TAAGAACAGG | 1.04
GGCATATTTA | 1
ATCTTGTGG | 1
CATGGCTCTT | 0.959
CGAAATTCTG | 0.991
GGTCTCACGT | 0.996
TGCGTTGATC | 1.02
TCGAGTGTCA | 0.976
CATATAGGCG | 1.06
TTCTCATTGA | 1.03
AAGTTAGCGT | 0.964
CCTGCGAAGT | 1.68
CGATGTAGCT | 1.01
AGGAGTAGGA | 1
GGCAGGCATA | 1.01
CCGACACC | 1.95
TTAGCGTCT | 1.02

Sequence | switch fluorescence ratio
TCGTTTTAC | 1.22
ACCTATTTAA | 1.04
TGCGTGTTTA | 1
ATATGGTTTT | 1.03
CAGGGGGTT | 1.01
CATTTACTGC | 1.05
GCGTAGCCAT | 1.05
TCGGGTCGGA | 0.983
TTTGAAGT | 0.927
GGCAGGATCT | 0.979
TTCCATCTGG | 0.984
ATATTAATAG | 0.949
GGACTTATTG | 0.972
ATCTGGGCAT | 0.979
CACGGCAACT | 1.34
TTCGGGGCCT | 1.01
GACGGGATG | 0.934
TAGAAGGTCT | 1
ATATGCGACG | 1.05
TGGCCAAGGG | 0.991
ATGCTCCTAT | 1.02
TGTTCGCGGA | 1
TCTACATTAG | 1.09

Sequence | switch fluorescence ratio
TATATGATGT | 1
GCATCTATCA | 1.01
TGAAAGCAAT | 1.67
AGCCACCTGG | 1.04
GATAGTCATC | 1.02
CCCATCCCCC | 1.3
GACGGGTATT | 1.02
ATTGATGAGC | 1.04
CGTCTGTGCT | 1.02
CCTTAACATA | 0.989
TTGTGGACTA | 0.992
TGTCTATATA | 0.995
TACCGCTCGC | 1.56
AGTTGTAGAG | 1.03
TCAAAGAGTT | 1.02
AGTACAAGTT | 0.952
TACTGGTTTT | 1
CGCTTGGCGG | 1.07
TTCATGGGGG | 0.951
